Measured values as given in PubChem BioAssay AID1345083 (National Center for Advancing Translational Sciences (NCATS), 2018).
Out of some 94,000 compounds screened, about 6,200 (6.6%) were called active. This list was built around the results that the source calls inconclusive (neither active nor inactive); the mix of calls is not that of the screen. Calls follow the shape of the dose curve; as a rule, active = well fitted inhibition curve with a large enough effect; inconclusive = small, poorly fitted or top-dose-only effect; inactive = flat fitted curve, though single readings scatter. Potencies of inconclusive entries are doubtful fits and often do not repeat.

Assay: Cytotoxic Profiling in HEK 293 Cell Line of Diverse Libraries Using Quantitative High-Throughput Screening; also: nearly all actives have a fitted effect of over 60% in size
Conditions: HEK 293 viability, ATP luminescence (CellTiter-Glo), 48-72 h; activity change, negative = cytotoxicity: at 115 µM (top of the series) unless noted; series mostly up to 115 µM
Outline: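 HEK 293 seeded at 250 cells/well receive compound via pintool. After 48 or 72 hr at 37 degree Celsius, 5% CO2 and 95% humidity, CellTiter-Glo is dispensed and luminescence read following 10 min at room temperature.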
% is scaled to controls: 0 for no effect and ±100 for the full control effect; potency is read from the fitted curve at half-maximal effect; tags tell the direction and shape of the fitted curve.

Row | Compound | Potency | activity change, negative = cytotoxicity | outcome
1 | CCNC(=O)[C@@H]1C[C@H](NC(=O)c2oc(C)nc2C)CN1C1CCOCC1 | inconclusive: 89.1 µM [inhibitor, single point] | – | –
2 | COCCN1CCOc2nc(-c3cc(F)cc(OC)c3)ncc2C1=O | – | inactive: -26.7% [at 172 µM] | –
3 | COCc1ccc2c(c1)c(OC(C)(C)C(=O)NC1CCOCC1)nn2Cc1cccnc1 | – | – | inactive [at 172 µM]
4 | CC1(C(=O)N2CCC(Cc3ccccc3)CC2)CCOCC1 | inconclusive: 126 µM [inhibitor, single point] | – | –
5 | O=C(c1nnc(COc2ccc3c(c2)OCO3)n1-c1ccccc1)N1CCC[C@@H]1c1nc2ccccc2[nH]1 | inconclusive: 50.1 µM [inhibitor, partial curve, poor fit] | – | –
6 | O=C(NCCCc1ccccc1)c1ccc2nc(-c3cccnc3Cl)oc2c1 | inconclusive: 79.4 µM [inhibitor, partial curve, poor fit] | – | –
7 | COc1ccc(OC)c([S+](=O)([O-])c2nnn3c2nc(N2CCC(F)CC2)c2ccccc23)c1 | inconclusive: 56.2 µM [inhibitor, partial curve, poor fit] | – | –
8 | COC1CCN(c2cc(-c3ccccc3)nc3c(C)noc23)CC1 | inconclusive: 70.8 µM [inhibitor, partial curve] | – | –
9 | NCCCC(=O)N1CCCC2(Cc3ccccc3CN2C(=O)c2cccc(Cl)c2)C1 (configuration not stated) | inconclusive: 56.2 µM [inhibitor, partial curve, poor fit] | – | –
10 | CCOc1ccc(-c2[nH]ncc2CN)cc1 | inconclusive: 89.1 µM [inhibitor, single point] | – | –
11 | O=C1COCC2(CN1Cc1ccccc1)CN(C(=O)C1(c3ccccc3)CC1)C2 | – | inactive: -1.03% [at 172 µM] | –
12 | COc1ccc(CN2CCC3(Cc4ccccc4CNC3=O)C2)c(OC)n1 (configuration not stated) | inactive | – | –
13 | COc1ccc(C(=O)Nc2ccc3c(N4CCOCC4)ncnc3c2)c(C)c1 | inconclusive: 10 µM [inhibitor, full curve] | – | –
14 | O=C(NCc1cccs1)c1cc(-c2cccnc2)c2nncn2n1 | – | inactive: -4.88% | –
15 | CN1CCCC1CCNc1nccc(-c2cnn(-c3ccc(F)cc3)c2)n1 (configuration not stated) | active: 44.7 µM | – | –
16 | CCN(C(=O)CCC(=O)N1CCc2c(c(-c3nncn3CC)nn2C)C1)c1ccccc1 | – | inactive: -5.93% | –
17 | COc1cc(=O)n2c(c1C(=O)N1CCN(c3ccc(C)cc3C)CC1)CCCC2 | inconclusive: 89.1 µM [inhibitor, single point] | – | –
18 | CN(Cc1ccc(F)cc1)C(=O)Cc1ccccn1 | – | inactive: -4.2% [at 172 µM] | –
19 | COc1nccnc1-c1cc(NCCN(C)C)nc2[nH]ccc12 | – | inactive: -16% | –
20 | CC(C)N1C(=O)CO[C@H](c2ccc(NC(=O)c3ccco3)cc2)[C@H]1CO | – | – | inactive [at 172 µM]
21 | COc1ccc(NC(=O)NCCc2noc(C3CC3)n2)cc1OC | – | inactive: -2.72% | –
22 | O=C(c1ccncc1)N1CCC(CCOc2ccc(F)cc2)C1 (configuration not stated) | inconclusive: 89.1 µM [inhibitor, partial curve, poor fit] | – | –
23 | CCN1C(=O)C2CC3(CCN(Cc4cnn(CC)c4C)CC3)CN2C1=O (configuration not stated) | – | – | inactive

Row | Compound | Potency | activity change, negative = cytotoxicity | outcome
24 | Cc1cnc(C(=O)NCC2Cn3cccc3C(=O)N2CC(C)C)cn1 (configuration not stated) | – | inactive: 4.48% | –
25 | O=C(NCc1ccc(F)cc1F)C1CCN(C(=O)c2ccc(-c3cccs3)cc2)CC1 | inconclusive: 89.1 µM [inhibitor, partial curve, poor fit] | – | –
26 | CC(NC(=O)c1ccc(Cn2ccn3nc4c(c3c2=O)CCCC4)cc1)c1ccccc1 (configuration not stated) | inconclusive: 20 µM [inhibitor, full curve, poor fit] | – | –
27 | O=C(c1cccc(C(F)(F)F)c1)N1CCOCC2(CN(Cc3ccccc3)C2)C1 | active: 7.08 µM | – | –
28 | COc1cccc(C(=O)N2[C@@H]3CC[C@H]2CC(NC(=O)c2cnc(C)cn2)C3)c1C (some centres not stated) | – | inactive: -23.3% | –
29 | CCC(C)NC(=O)N1CC(Oc2ccc(-c3noc(COC)n3)cc2)C1 (configuration not stated) | inconclusive: 22.4 µM [inhibitor, partial curve] | – | –
30 | O=C(NC1CCCN(c2cc(-c3ccccc3)[nH]n2)C1)C1CCCC1 (configuration not stated) | inconclusive: 25.1 µM [inhibitor, full curve] | – | –
31 | C[S+](=O)([O-])N1CC2(Cc3ccccc31)CN(C(=O)c1ccccc1)C2 | inconclusive: 35.5 µM [inhibitor, full curve] | – | –
32 | CCN1CCN(C(=O)c2cc(-c3ccccc3C(F)(F)F)nc3c2cnn3C)CC1 | – | – | inactive
33 | O=C(Cc1c[nH]c2ncc(-c3cccnc3)cc12)NCc1ccccc1 | active: 89.1 µM | – | –
34 | COc1ccc(CC(=O)NC(C)C(=O)N2CCN(c3ccccn3)CC2)c(Cl)c1 (configuration not stated) | inconclusive: 89.1 µM [inhibitor, single point] | – | –
35 | O=C(c1ccccc1OC(F)(F)F)N1C[C@@H](CO)[C@@H]2Oc3c(F)cccc3[C@@H]21 | inconclusive: 79.4 µM [inhibitor, partial curve, poor fit] | – | –
36 | COc1ccc(-c2cc(N3CCCC(NC(=O)c4sccc4C)C3)n[nH]2)cc1 (configuration not stated) | inconclusive: 50.1 µM [inhibitor, partial curve, poor fit] | – | –
37 | CN(C)CCCN(C)c1nccc(C2(c3ccccc3Cl)CCNCC2)n1 | inconclusive: 79.4 µM [inhibitor, partial curve, poor fit] | – | –
38 | CC1=C[C@@H](CNS(=O)(=O)c2ccccc2)[C@H](C(C)C)C[C@H]1Cc1nc2ccncc2[nH]1 | active: 70.8 µM | – | –
39 | Cn1ncc2c(C(=O)NCC#N)cc(-c3ccc(C(F)(F)F)cc3)nc21 | inconclusive: 35.5 µM [inhibitor, partial curve, poor fit] | – | –
40 | c1ccc(-c2nc(-c3ccncc3)no2)c(OC2CCN(C3CCCC3)C2)c1 (configuration not stated) | inconclusive: 6.31 µM [inhibitor, full curve, poor fit] | – | –
41 | O=C(NCc1nnc2cc(-c3nc(C4CC4)no3)ccn12)c1ccc(F)cc1Cl | inconclusive: 50.1 µM [inhibitor, partial curve, poor fit] | – | –
42 | COCCn1cc2c3c(cccc31)CN(C(=O)CCCc1ccccc1)CC2 | inconclusive: 35.5 µM [inhibitor, partial curve, poor fit] | – | –
43 | O=C1CC(c2ccccc2)N(Cc2ccncc2)CCCN(C(=O)CN2C(=O)CCC2=O)CCN1 (configuration not stated) | inconclusive: 89.1 µM [inhibitor, partial curve, poor fit] | – | –
44 | O=C(Cn1ccn2nc(-c3ccc(F)cc3)c(CO)c2c1=O)Nc1ccc2c(c1)OCCO2 | – | inactive: -5.78% | –
45 | CC(C)N1C(=O)Cc2ccccc2C1C(=O)NCc1cccc(F)c1 (configuration not stated) | – | inactive: 0.107% | –
46 | CCCC(=O)Nc1ccc(C2OC(=O)N(Cc3ccc(F)cc3)C2C(=O)NCc2ccccc2)cc1 (configuration not stated) | inconclusive: 100 µM [inhibitor, single point] | – | –

Row | Compound | Potency | activity change, negative = cytotoxicity | outcome
47 | O=C(NCc1cc2n(n1)CCCN(C1CCCCC1)C2)c1cccc(F)c1 | – | inactive: 0.948% | –
48 | CC(=O)Nc1ccc(CN2CCC3(COc4ccccc4C(=O)N3)C2)cc1 (configuration not stated) | inconclusive: 50.1 µM [inhibitor, partial curve, poor fit] | – | –
49 | CC1CCN(C(=O)[C@@H](C)C2CC[C@@]3(C)CC[C@H](NC(=O)Nc4cccc(F)c4)[C@@H](C)[C@@H]3[C@H]2O)CC1 (some centres not stated) | – | inactive: -27.4% | –
50 | CN1CCc2c([nH]c3ccccc23)C12CCN(C(=O)c1ccc3ccccc3n1)CC2 | – | inactive: -28.7% | –
51 | COc1cccc(C(=O)N2C(C(=O)NCc3ccccc3)COC23CCN(C(=O)CC(C)C)CC3)c1 (configuration not stated) | – | inactive: -8.15% | –
52 | O=C(Cc1ccccc1Cl)N1CCC2(CC1)NC(=O)N(c1ccc(F)cc1)N2 | inconclusive: 70.8 µM [inhibitor, partial curve, poor fit] | – | –
53 | CN(C)C(=O)CCc1ccc(CC2CCN(C(=O)CCC3CCCC3)CC2)cc1 | active: 25.1 µM | – | –
54 | CCN(CC)C(=O)CCc1c(C)nn(-c2ccccc2)c1Oc1ccc(F)cc1F | inconclusive: 35.5 µM [inhibitor, partial curve, poor fit] | – | –
55 | COc1ccccc1CC(=O)N1CCCc2ncc(C(=O)NCc3ccc(OC)c(OC)c3)cc21 | inconclusive: 50.1 µM [inhibitor, partial curve, poor fit] | – | –
56 | CS(=O)(=O)N1CCCC(C(=O)N2CCC(c3ccccc3)CC2)C1 (configuration not stated) | – | inactive: 2.09% | –
57 | O=C(NC1CCCN(c2cc(-c3ccc(F)cc3)[nH]n2)C1)c1ccc2c(c1)OCO2 (configuration not stated) | inconclusive: 50.1 µM [inhibitor, partial curve, poor fit] | – | –
58 | O=C(c1ccc2cc[nH]c2c1)N1CCC2(CC1)N=C(c1ccccc1)NO2 | inconclusive: 70.8 µM [inhibitor, single point] | – | –
59 | Cc1ccc(C(=O)N2CCC3(CC2)N=C(c2cccc(Br)c2)NO3)cc1C | inconclusive: 79.4 µM [inhibitor, partial curve, poor fit] | – | –
60 | CC(C)(N)C(=O)N1CCCC(N2CCN(c3ccc(F)cc3)CC2)C1 (configuration not stated) | inconclusive: 89.1 µM [inhibitor, partial curve, poor fit] | – | –
61 | O=C(NCc1ccc2c(c1)OCO2)C1CCCCN1Cc1ccc(-c2ccsc2)cc1 (configuration not stated) | active: 22.4 µM | – | –
62 | CCc1cccc(NC(=O)N2[C@@H]3CC[C@H]2CC(NC(=O)c2ccc(F)cc2)C3)c1 (some centres not stated) | active: 39.8 µM | – | –
63 | CNC(=O)c1cc(C2CC2)nc2onc(C3CCN(C(=O)c4cccc(Cl)c4)CC3)c12 | – | inactive: -26.6% | –
64 | Cc1ccc(C(=O)N2CCCN(c3cc(-c4ccccc4)[nH]n3)CC2)cc1 | inconclusive: 50.1 µM [inhibitor, partial curve, poor fit] | – | –
65 | COc1ccccc1OCCNC(=O)[C@H]1CCC[C@H]1NC(=O)c1ccncc1 | – | inactive: -16.8% | –
66 | Cc1ccc2c(C(=O)NCc3ccc(C(F)(F)F)cc3)cc(NC(=O)C(C)C)cc2n1 | inconclusive: 39.8 µM [inhibitor, full curve, poor fit] | – | –
67 | O=C(C1CC1)N1CCC(c2nn(Cc3ccccc3)c(=O)[nH]2)CC1 | – | inactive: -1.14% [at 172 µM] | –
